# Laboratory results taken from the supplement of paper PMC4967469.
# pIC50: −log10 of the molar value. IC50 is the fitted dose that halves viability relative to control wells, and lower means more sensitive; a limit (>, <) means that the fit lies beyond the doses tested. The AUC spans the tested range (256-fold, ending at the top dose) of the same fit; the more sensitive the line, the further below 1. Where the top dose is marked as inferred, it is not printed in the source and was worked back from the curve model.
# Key:
# Experiment in all cases: Viability of human cancer cell lines after 72 h of drug (GDSC screen)
# [1] = compound: CC(C)N(CCCNC(=O)Nc1ccc(C(C)(C)C)cc1)C[C@H]1O[C@@H](n2cc(Br)c3c(N)ncnc32)[C@H](O)[C@@H]1O [SGC0946]; conditions: top dose 0.5 µM; top dose inferred
# Description: (§1)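 Human cancer cell lines in 384-well plates, medium with 10% serum, drug for 72 h over a 256-fold dose range (nine 2-fold or five 4-fold steps up to the top dose). Adherent lines were fixed and stained with the nucleic acid dye Syto60, suspension lines read with resazurin; signal relative to control wells, capped at 0 and 100%. One two-parameter sigmoid per drug and line, fitted in a mixed model over all curves with the slope shared within a line.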
# [2] = compound: Nc1cccc2c1CN(C1CCC(=O)NC1=O)C2=O [Lenalidomide]; conditions: top dose 5 µM; top dose inferred
# Description: as §1
# [3] = compound: CCC/C=C/C=C/C(=O)O[C@H]1/C(=C/C(=O)OC)C[C@H]2C[C@H]([C@@H](C)O)OC(=O)C[C@H](O)C[C@@H]3C[C@H](OC(C)=O)C(C)(C)[C@](O)(C[C@@H]4C/C(=C/C(=O)OC)C[C@H](/C=C/C(C)(C)[C@]1(O)O2)O4)O3 [Bryostatin 1]; conditions: top dose 0.008 µM; top dose inferred
# Description: as §1
# [4] = compound: COc1ccc(COc2ccc(Cc3cnc(N)nc3N)cc2OC)cc1 [GW-2580]; conditions: top dose 20 µM; top dose inferred
# Description: as §1
Cell Line,AUC [1],pIC50 [1],AUC [2],pIC50 [2],AUC [3],pIC50 [3],AUC [4],pIC50 [4]
"A549 (lung adenocarcinoma, adherent)",0.965,< 6.30,0.962,< 5.30,,,,
"BALL-1 (B-cell leukaemia, suspension)",0.997,< 6.30,0.997,< 5.30,,,,
"BT-549 (breast, adherent)",0.976,< 6.30,0.971,< 5.30,,,,
"CL-34 (large intestine, adherent)",0.985,< 6.30,0.967,< 5.30,,,,
"CL-40 (large intestine, adherent)",0.965,< 6.30,0.975,< 5.30,,,,
"CML-T1 (chronic myeloid leukaemia, suspension)",0.987,< 6.30,0.991,< 5.30,,,,
"JJN-3 (haematopoietic neoplasm, suspension)",0.992,< 6.30,,,0.983,< 8.10,0.986,< 4.70
"KG-1 (acute myeloid leukaemia, suspension)",0.985,< 6.30,,,0.99,< 8.10,0.99,< 4.70
"KOSC-2 (head and neck, adherent)",0.984,< 6.30,,,0.983,< 8.10,0.985,< 4.70
"KP-4 (pancreas, adherent)",0.987,< 6.30,,,0.98,< 8.10,0.953,< 4.70
"KYSE-180 (oesophagus, adherent)",0.987,< 6.30,,,0.982,< 8.10,0.984,< 4.70
"KYSE-270 (oesophagus, adherent)",0.99,< 6.30,,,0.977,< 8.10,0.98,< 4.70
"L-363 (myeloma, suspension)",0.986,< 6.30,,,0.976,< 8.10,0.99,< 4.70
"LC-2-ad (lung adenocarcinoma, adherent)",0.984,< 6.30,,,0.98,< 8.10,0.981,< 4.70
"LN-229 (glioma, adherent)",0.983,< 6.30,,,0.954,< 8.10,0.988,< 4.70
"LNCaP-Clone-FGC (prostate, adherent)",0.862,< 6.30,,,0.973,< 8.10,0.955,< 4.70
"LP-1 (myeloma, suspension)",0.993,< 6.30,,,0.99,< 8.10,0.989,< 4.70
"LU-99A (large cell lung carcinoma, adherent)",0.961,< 6.30,,,0.918,< 8.10,0.983,< 4.70
"M059J (glioma, adherent)",0.982,< 6.30,,,0.688,8.75,0.984,< 4.70
"MCF7 (breast, adherent)",0.971,< 6.30,,,0.936,< 8.10,0.982,< 4.70
"MDA-MB-157 (breast, adherent)",0.987,< 6.30,,,0.96,< 8.10,0.978,< 4.70
"MDA-MB-231 (breast, adherent)",0.959,< 6.30,,,0.985,< 8.10,0.971,< 4.70
"MFE-319 (endometrium, adherent)",0.988,< 6.30,,,0.982,< 8.10,0.986,< 4.70
"MKN1 (stomach, adherent)",0.985,< 6.30,,,0.98,< 8.10,0.983,< 4.70
"ML-1 (thyroid, adherent)",0.982,< 6.30,,,0.908,< 8.10,0.98,< 4.70

Cell Line,AUC [1],pIC50 [1],AUC [2],pIC50 [2],AUC [3],pIC50 [3],AUC [4],pIC50 [4]
"MV-4-11 (leukaemia, suspension)",0.965,< 6.30,,,0.98,< 8.10,0.985,< 4.70
"NCI-H196 (small cell lung carcinoma, adherent)",0.94,< 6.30,,,0.985,< 8.10,0.945,< 4.70
"NCI-H460 (large cell lung carcinoma, adherent)",0.989,< 6.30,,,0.967,< 8.10,0.987,< 4.70
"NCI-H522 (lung adenocarcinoma, adherent)",0.979,< 6.30,,,0.913,< 8.10,0.979,< 4.70
"NCI-H1299 (large cell lung carcinoma, adherent)",0.98,< 6.30,,,0.869,< 8.10,0.974,< 4.70
"NCI-H1573 (lung adenocarcinoma, adherent)",0.989,< 6.30,,,0.99,< 8.10,0.978,< 4.70
"NCI-H1793 (lung adenocarcinoma, adherent)",0.976,< 6.30,,,0.967,< 8.10,0.978,< 4.70
"NCI-H1915 (large cell lung carcinoma, adherent)",0.986,< 6.30,,,0.988,< 8.10,0.986,< 4.70
"NCI-H1975 (lung adenocarcinoma, adherent)",0.969,< 6.30,,,0.982,< 8.10,0.983,< 4.70
"NCI-H2030 (lung adenocarcinoma, adherent)",0.98,< 6.30,,,0.85,8.13,0.981,< 4.70
"NCI-H2085 (lung adenocarcinoma, adherent)",0.985,< 6.30,,,0.985,< 8.10,0.983,< 4.70
"NCI-H2170 (lung squamous cell carcinoma, adherent)",0.986,< 6.30,,,0.958,< 8.10,0.985,< 4.70
"NUGC-3 (stomach, adherent)",0.982,< 6.30,,,0.968,< 8.10,0.983,< 4.70
"OAW-28 (ovary, adherent)",0.98,< 6.30,,,0.929,< 8.10,0.983,< 4.70
"OCI-LY7 (B-cell lymphoma, suspension)",,,0.975,< 5.30,,,,
"OPM-2 (myeloma, suspension)",0.993,< 6.30,,,0.986,< 8.10,0.993,< 4.70
"OSC-19 (head and neck, adherent)",0.983,< 6.30,,,0.972,< 8.10,0.982,< 4.70
"OVCAR-3 (ovary, adherent)",0.985,< 6.30,,,0.965,< 8.10,0.977,< 4.70
"PANC-10-05 (pancreas, adherent)",0.975,< 6.30,,,0.945,< 8.10,0.982,< 4.70
"PC-3 (prostate, adherent)",0.981,< 6.30,,,0.983,< 8.10,0.975,< 4.70
"PCI-38 (head and neck, adherent)",0.979,< 6.30,,,0.983,< 8.10,0.987,< 4.70
"PL18 (pancreas, adherent)",0.987,< 6.30,,,0.987,< 8.10,0.976,< 4.70
"RD (rhabdomyosarcoma, adherent)",0.983,< 6.30,,,0.956,< 8.10,0.984,< 4.70
"RERF-GC-1B (stomach, adherent)",0.983,< 6.30,,,0.968,< 8.10,0.981,< 4.70
"RPMI-8226 (myeloma, suspension)",0.977,< 6.30,,,0.989,< 8.10,0.984,< 4.70

Cell Line,AUC [1],pIC50 [1],AUC [2],pIC50 [2],AUC [3],pIC50 [3],AUC [4],pIC50 [4]
"RT-112 (bladder, adherent)",0.964,< 6.30,,,0.873,< 8.10,0.984,< 4.70
"SCC-15 (head and neck, adherent)",0.976,< 6.30,,,0.977,< 8.10,0.98,< 4.70
"SK-CO-1 (large intestine, adherent)",0.985,< 6.30,,,0.986,< 8.10,0.971,< 4.70
"SK-LU-1 (lung adenocarcinoma, adherent)",0.979,< 6.30,,,0.944,< 8.10,0.977,< 4.70
"SK-MEL-28 (melanoma, adherent)",0.987,< 6.30,,,0.983,< 8.10,0.983,< 4.70
"SK-N-DZ (neuroblastoma, adherent)",0.987,< 6.30,,,0.965,< 8.10,0.988,< 4.70
"SN12C (kidney, adherent)",0.974,< 6.30,,,0.957,< 8.10,0.98,< 4.70
"SNU-398 (liver, adherent)",0.984,< 6.30,,,0.984,< 8.10,0.983,< 4.70
"SU-DHL-4 (B-cell lymphoma, suspension)",0.997,< 6.30,,,0.997,< 8.10,0.997,< 4.70
"SU-DHL-6 (B-cell lymphoma, suspension)",0.995,< 6.30,,,0.995,< 8.10,0.995,< 4.70
"SW156 (kidney, adherent)",0.984,< 6.30,,,0.986,< 8.10,0.941,< 4.70
"SW620 (large intestine, adherent)",0.985,< 6.30,,,0.99,< 8.10,0.99,< 4.70
"SW837 (large intestine, adherent)",0.98,< 6.30,,,0.847,< 8.10,0.949,< 4.70
"SW872 (soft tissue, adherent)",0.988,< 6.30,,,0.974,< 8.10,0.989,< 4.70
"SW900 (lung squamous cell carcinoma, adherent)",0.983,< 6.30,,,0.984,< 8.10,0.977,< 4.70
"SW1088 (glioma, adherent)",0.979,< 6.30,,,0.922,< 8.10,0.982,< 4.70
"SW1463 (large intestine, adherent)",0.975,< 6.30,,,0.954,< 8.10,0.97,< 4.70
"T-24 (bladder, adherent)",0.966,< 6.30,,,0.967,< 8.10,0.988,< 4.70
"TCCSUP (bladder, adherent)",0.983,< 6.30,,,0.956,< 8.10,0.985,< 4.70
"TGBC24TKB (biliary tract, adherent)",0.989,< 6.30,,,0.989,< 8.10,0.974,< 4.70
"THP-1 (acute myeloid leukaemia, suspension)",0.99,< 6.30,,,0.988,< 8.10,0.97,< 4.70
"U031 (kidney, adherent)",0.964,< 6.30,,,0.985,< 8.10,0.977,< 4.70
"WSU-DLCL2 (B-cell lymphoma, suspension)",0.991,< 6.30,,,0.991,< 8.10,0.988,< 4.70
